Compound in this assay: N#CC[C@H](C1CCCC1)n1cc(-c2ncnc3[nH]ccc23)cn1 [Ruxolitinib]
The assay can be described thus: Viability of human cancer cell lines after 72 h of drug (GDSC screen). As for the experimental part:
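Human cancer cell lines in 384-well plates, medium with 10% serum, drug for 72 h over a 256-fold dose range (nine 2-fold or five 4-fold steps up to the top dose). Adherent lines were fixed and stained with the nucleic acid dye Syto60, suspension lines read with resazurin; signal relative to control wells, capped at 0 and 100%. One two-parameter sigmoid per drug and line, fitted in a mixed model over all curves with the slope shared within a line.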

By IC50 is meant the dose at which the fit gives 50% viability; where the fit passes the top or lowest dose, that dose stands as a limit. The AUC spans the tested range (256-fold, ending at the top dose) of the same fit; the more sensitive the line, the further below 1.

“D-566MG (glioma, adherent, top dose 5.24 µM)”: the AUC stood at 0.986 and the IC50 – broadly, the concentration needed to halve the response being measured – was over 5.24 µM.
The matching figures for “AM-38 (glioma, semi-adherent, top dose 5.24 µM)”: 0.98 and over 5.24 µM.
Consider “SNU-182 (liver, adherent, top dose 1.024 µM)”, for which the AUC turned out to be 0.953 and the half-inhibitory concentration (IC50) was over 1.02 µM.
On to “EoL-1-cell (haematopoietic neoplasm, suspension, top dose 5.24 µM)”, for which the AUC came to 0.975 and the IC50 was over 5.24 µM.
With “SW1116 (large intestine, adherent, top dose 5.24 µM)”, the AUC is 0.983 and the IC50 was over 5.24 µM.
Taken in the same sequence, the figures for “TE-4 (oesophagus, adherent, top dose 5.24 µM)” were 0.981 and over 5.24 µM.
The matching figures for “HN (head and neck, adherent, top dose 5.24 µM)”: 0.989 and over 5.24 µM.
In the case of “NCI-H1437 (lung adenocarcinoma, adherent, top dose 5.24 µM)”, the AUC worked out at 0.986 and the IC50 is over 5.24 µM.
As for “SK-MEL-1 (melanoma, suspension, top dose 5.24 µM)”, the AUC turned out to be 0.993 and the IC50 is over 5.24 µM.
Regarding “Detroit562 (head and neck, adherent, top dose 5.24 µM)”, the AUC was 0.988 and the half-maximal inhibitory concentration (IC50) was over 5.24 µM.
Taken in the same sequence, the figures for “EMC-BAC-2 (lung adenocarcinoma, adherent, top dose 5.24 µM)” were 0.98 and over 5.24 µM.
The matching figures for “NKM-1 (acute myeloid leukaemia, suspension, top dose 5.24 µM)”: 0.983 and over 5.24 µM.
Taken in the same sequence, the figures for “A253 (head and neck, adherent, top dose 5.24 µM)” were 0.988 and over 5.24 µM.
On to “SK-MG-1 (glioma, adherent, top dose 5.24 µM)”, for which the AUC turned out to be 0.987 and the concentration for half-maximal inhibition (IC50) was over 5.24 µM.
On to “LCLC-97TM1 (large cell lung carcinoma, adherent, top dose 5.24 µM)”, for which the AUC was determined as 0.976 and the IC50 is over 5.24 µM.
The matching figures for “SIMA (neuroblastoma, adherent, top dose 5.24 µM)”: 0.977 and over 5.24 µM.
Consider “EBC-1 (lung squamous cell carcinoma, adherent, top dose 5.24 µM)”, for which the AUC worked out at 0.983 and the IC50 is over 5.24 µM.
The matching figures for “GDM-1 (acute myeloid leukaemia, suspension, top dose 5.24 µM)”: 0.827 and 3.01 µM.
The matching figures for “SU-DHL-5 (B-cell lymphoma, suspension, top dose 5.24 µM)”: 0.994 and over 5.24 µM.
As for “KYM-1 (rhabdomyosarcoma, adherent, top dose 5.24 µM)”, the AUC was 0.988 and the IC50 was over 5.24 µM.
The matching figures for “MKN45 (stomach, adherent, top dose 5.24 µM)”: 0.981 and over 5.24 µM.
Take “LB1047-RCC (kidney, adherent, top dose 5.24 µM)”: the AUC came to 0.983 and the IC50 was over 5.24 µM.
The matching figures for “ACHN (kidney, adherent, top dose 5.24 µM)”: 0.977 and over 5.24 µM.
With “HSC-4 (head and neck, adherent, top dose 5.24 µM)”, the AUC was 0.976 and the IC50 was over 5.24 µM.
For the cell line “LB647-SCLC (small cell lung carcinoma, semi-adherent, top dose 5.24 µM)”, the AUC was 0.972 and the IC50 was over 5.24 µM.
Taken in the same sequence, the figures for “NCI-H441 (lung adenocarcinoma, adherent, top dose 5.24 µM)” were 0.979 and over 5.24 µM.
As to “OCI-M1 (acute myeloid leukaemia, suspension, top dose 5.24 µM)”, the AUC turned out to be 0.069 and the half-maximal inhibitory concentration (IC50) was under 0.0205 µM.
Taken in the same sequence, the figures for “GP5d (large intestine, adherent, top dose 5.24 µM)” were 0.99 and over 5.24 µM.
Taken in the same sequence, the figures for “D-542MG (glioma, adherent, top dose 5.24 µM)” were 0.982 and over 5.24 µM.
For “KMH-2 (thyroid, adherent, top dose 5.24 µM)”, the AUC turned out to be 0.99 and the IC50 was over 5.24 µM.
Regarding “T-T (oesophagus, adherent, top dose 5.24 µM)”, the AUC was determined as 0.986 and the IC50 was over 5.24 µM.
In the case of “KON (head and neck, adherent, top dose 5.24 µM)”, the AUC amounted to 0.987 and the IC50 is over 5.24 µM.
Taken in the same sequence, the figures for “COR-L279 (small cell lung carcinoma, suspension, top dose 5.24 µM)” were 0.981 and over 5.24 µM.
Turning to “ME-1 (acute myeloid leukaemia, suspension, top dose 5.24 µM)”, the AUC came out at 0.987 and the IC50 was over 5.24 µM.
On to “VMRC-RCW (kidney, adherent, top dose 5.24 µM)”, for which the AUC is 0.987 and the IC50 was over 5.24 µM.
Regarding “KYSE-410 (oesophagus, adherent, top dose 5.24 µM)”, the AUC worked out at 0.985 and the IC50 is over 5.24 µM.
The matching figures for “TMK-1 (stomach, adherent, top dose 5.24 µM)”: 0.985 and over 5.24 µM.
Taken in the same sequence, the figures for “MFE-280 (endometrium, adherent, top dose 5.24 µM)” were 0.972 and over 5.24 µM.
Consider “CAL-85-1 (breast, adherent, top dose 5.24 µM)”, for which the AUC came out at 0.979 and the 50% inhibitory concentration (IC50) was over 5.24 µM.
Taken in the same sequence, the figures for “RT4 (bladder, adherent, top dose 5.24 µM)” were 0.987 and over 5.24 µM.
On to “NCI-H630 (large intestine, adherent, top dose 5.24 µM)”, for which the AUC turned out to be 0.987 and the IC50 is over 5.24 µM.
The matching figures for “OCI-AML3 (acute myeloid leukaemia, suspension, top dose 5.24 µM)”: 0.986 and over 5.24 µM.
As for “Caov-4 (ovary, adherent, top dose 5.24 µM)”, the AUC was 0.972 and the IC50 is over 5.24 µM.
With “COLO-684 (endometrium, suspension, top dose 5.24 µM)”, the AUC was 0.973 and the IC50 is over 5.24 µM.
Regarding “EMC-BAC-1 (lung adenocarcinoma, adherent, top dose 5.24 µM)”, the AUC turned out to be 0.956 and the half-maximal inhibitory concentration (IC50) was over 5.24 µM.
For the cell line “SLVL (B-cell lymphoma, suspension, top dose 5.24 µM)”, the AUC came out at 0.954 and the IC50 was over 5.24 µM.
Taken in the same sequence, the figures for “HCC70 (breast, adherent, top dose 5.24 µM)” were 0.988 and over 5.24 µM.
“SW954 (urogenital system, adherent, top dose 5.24 µM)”: the AUC turned out to be 0.985 and the IC50 was over 5.24 µM.

The values above are taken from the supplement of paper PMC4967469.
